Experimental data from patent US11969476B2, “Antibody molecule-drug conjugates and uses thereof” (priority 2020, dated 2024).
Not every detail of the peptide structures is certain; ends, links or a residue may be inferred. Ends that are not written are not given here. Peptide text beside a SMILES is read from it.

Columns and labels:
[1] = MIC in human serum (hsMIC) relative to MIC; format: cell-based; conditions: NA, no active in human serum
Pae 39324 = assay: MIC determination (CLSI, 2-fold serial dilutions); format: cell-based, Pseudomonas aeruginosa
Description: (§1) Assessment of Antimicrobial Activity. […] All plates were placed at 37° C. overnight. After 18 hours the plates were read using a mirrored plate reader and reflected incandescent light. […] Wells at and above the MIC should appear void of growth when read by eye.

Sau 29213 = assay: MIC determination (CLSI, 2-fold serial dilutions); format: cell-based, S. Aureus
Description: as §1

Eco 25922 = assay: MIC determination (CLSI, 2-fold serial dilutions); format: cell-based, E. coli
Description: as §1

P. aeruginosa ATCC 27853 = assay: Time-kill assay; format: cell-based; conditions: peptide levels of four times the MIC or greater, time-course
Pae 27853 = assay: MIC determination (CLSI, 2-fold serial dilutions); format: cell-based, Pseudomonas aeruginosa
Description: as §1

[2] = numbers in parentheses are molar equivalents

CC[C@H](C)[C@H](NC(=O)[C@@H](NC(=O)[C@@H]1CCCN1C(=O)[C@H](CO)NC(=O)[C@H](CC(C)C)NC(=O)[C@H](CCCCN)NC(=O)[C@H](CCCCN)NC(=O)[C@H](Cc1ccccc1)NC(=O)[C@H](CC(C)C)NC(=O)[C@H](CCCCN)NC(=O)[C@H](CCCCN)NC(=O)[C@H](Cc1ccccc1)NC(=O)[C@H](CCCCN)NC(=O)[C@H](CCCCN)NC(=O)[C@H](CCCNC(=N)N)NC(=O)[C@H](Cc1ccccc1)NC(=O)[C@H](CCCNC(=N)N)NC(=O)[C@H](CCCCN)NC(=O)[C@H](Cc1ccccc1)NC(=O)[C@H](CCCNC(=N)N)NC(=O)CNC(=O)CNC(=O)CNC(=O)CN)C(C)C)C(=O)N1CCC[C@H]1C(=O)N[C@@H](CC(C)C)C(=O)N[C@@H](CC(C)C)C(=O)N[C@@H](Cc1c[nH]cn1)C(=O)N[C@@H](CC(C)C)C(=O)NCC(=O)O [Peptide P267] (H-GGGGRFKRFRKKFKKLFKKLSPVIPLLHLG-OH)
Human Serum hsMIC/MIC [1]: 0.5

CC[C@H](C)[C@H](NC(=O)[C@@H](NC(=O)[C@@H]1CCCN1C(=O)[C@H](CO)NC(=O)[C@H](CC(C)C)NC(=O)[C@H](CCCCN)NC(=O)[C@H](CCCCN)NC(=O)[C@H](Cc1ccccc1)NC(=O)[C@H](CC(C)C)NC(=O)[C@H](CCCCN)NC(=O)[C@H](CCCCN)NC(=O)[C@H](Cc1ccccc1)NC(=O)[C@H](CCCCN)NC(=O)[C@H](CCCCN)NC(=O)[C@H](CCCNC(=N)N)NC(=O)[C@H](Cc1ccccc1)NC(=O)[C@H](CCCNC(=N)N)NC(=O)[C@H](CCCCN)NC(=O)[C@H](Cc1ccccc1)NC(=O)[C@H](CCCNC(=N)N)NC(=O)CNC(=O)CNC(=O)CNC(=O)CN)C(C)C)C(=O)N1CCC[C@H]1C(=O)N[C@@H](CC(C)C)C(=O)N[C@@H](CC(C)C)C(=O)N[C@@H](Cc1c[nH]cn1)C(=O)N[C@@H](CC(C)C)C(=O)NCC(=O)O [Peptide P295] (H-GGGGRFKRFRKKFKKLFKKLSPVIPLLHLG-OH)
Human Serum hsMIC/MIC [1]: 1

GGGGIGKFLKKAKKFGKAFVKILKK [Peptide P261]
MIC Pae 39324 (Pae 39324): 8 μg,/ml | Human Serum hsMIC/MIC [1]: 2 | MIC Sau 29213 (Sau 29213): 32 μg,/ml | MIC Eco 25922 (Eco 25922): 4 μg,/ml

GGGGLRKRLRKFRNKIKEKLKKIGQKIQGLLPKLA [Peptide P271]
Human Serum hsMIC/MIC [1]: 2

GGGKFFRKLKKSVKKRAKEFFKKPRVIGVSIPF [Peptide P297]
reduction of P. aeruginosa titers (P. aeruginosa ATCC 27853): > 3 logs | MIC Pae 27853 (Pae 27853): 4 μg,/ml | MIC Pae 27853, molar equivalents (Pae 27853; [2]): (1.0) | MIC Pae 39324 (Pae 39324): 2 μg,/ml | MIC Pae 39324, molar equivalents (Pae 39324; [2]): (0.5) | Human Serum hsMIC/MIC [1]: 2 | MIC Sau 29213 (Sau 29213): 32 μg,/ml | MIC Sau 29213, molar equivalents (Sau 29213; [2]): (8.3) | MIC Eco 25922 (Eco 25922): 4 μg,/ml | MIC Eco 25922, molar equivalents (Eco 25922; [2]): (1.0)

GGGKRFKKFFKKLKNSVKKRAKKFFKKPRVIGVSIPF [Peptide P296]
MIC Pae 27853 (Pae 27853): 4 μg,/ml | MIC Pae 39324 (Pae 39324): 2 μg,/ml | MIC Sau 29213 (Sau 29213): 16 μg,/ml | MIC Eco 25922 (Eco 25922): 4 μg,/ml
